Experimental data reported in a compilation of properties of binary mixtures (doi:10.1016/j.fluid.2019.06.006).
The densities may have been worked out from excess volumes.

Test: xn = mol fraction of the nth substance listed
Settings: 100 kPa

OC[C@@H](O)[C@@H](O)[C@H](O)[C@@H](O)CO + CC(=O)[O-].CC[n+]1ccn(C)c1
mass density [kg/m3]
Settings | x1 = 0.0941 | x1 = 0.1894 | x1 = 0.2859 | x1 = 0.483 | x1 = 0.5836
303.15 K | 1129 | – | 1184 | 1234 | –
313.15 K | 1123 | 1148 | 1178 | 1228 | 1240
323.15 K | 1117 | 1142 | 1171 | 1221 | 1232
333.15 K | 1111 | 1136 | 1165 | 1214 | 1224

CC(=O)[O-].CC[n+]1ccn(C)c1 + OC[C@H](O)[C@@H](O)[C@H](O)[C@H](O)CO
x2 = 0
Settings | mass density [kg/m3]
303.15 K | 1095
323.15 K | 1083
333.15 K | 1077
